# Reference: patent publication EP0170820A2, “3-Amino-3,4,6-trideoxyglycals, processes for their preparation and anthracylines obtained with those glycals” (LABORATOIRES HOECHST S.A., priority 1984, dated 1986)
# Where a name gives a salt, the structure may show the parent alone.
# Test system: leukämische Zellen L 1210
# Test: Colony formation test on L 1210 leukaemia cells in agarose (method of Hamburger and Salmon, modified)
# Conditions: Mus musculus, L1210, read-out: ED50(IC50) (µg/ml) kontin. Exposition
row,SMILES,IC50 [µg/mL]
1,"COc1cccc2c1C(=O)c1c(O)c3c(c(O)c1C2=O)C[C@@](O)(C(=O)CO)C[C@@H]3O[C@H]1C[C@H](N)[C@H](O)[C@H](C)O1 [Adriamycin, reference compound]",0.02
2,"COc1cccc2c1C(=O)c1c(O)c3c(c(O)c1C2=O)C[C@@](O[C@H]1C[C@H](N)C[C@H](C)O1)(C(C)=O)C[C@@H]3O[C@H]1C[C@H](N)C[C@H](C)O1 [Verbindung 23b, Di-O-7,9-(3'-amino-2',3',4',6'-tetra-desoxy-α-1-threo-hexopyranosyl)-daunomycinon·HCl]",0.31
3,"COc1cccc2c1C(=O)c1c(O)c3c(c(O)c1C2=O)C[C@@](O[C@H]1C[C@H](N)C[C@H](C)O1)(C(C)=O)C[C@@H]3O [Verbindung 22b, 9-0-(3'-Amino-2',3',4',6'-tetradesoxy-α-L-threo-hexopyranosyl)-daunomycinon·HCl]",0.8
4,"COc1cccc2c1C(=O)c1c(O)c3c(c(O)c1C2=O)C[C@@](O)(C(C)=O)C[C@@H]3O[C@H]1C[C@H](N2CCOCC2)C[C@H](C)O1 [Verbindung 24, 7-0-(3'-Morpholino-2',3',4',6'-tetradesoxy-α-L-threo-hexopyranosyl)daunomycinon·HCl]",0.0016
